The whole screen tested about 48,000 compounds, of which about 120 (0.25%) were called active. About 4% were inconclusive and are not listed. Calls follow the shape of the dose curve; as a rule, active = well fitted activation curve with a large enough effect; inconclusive = small, poorly fitted or top-dose-only effect, or another doubt; inactive = no such curve, though single readings can be large or run the other way. This is one part of the list.
Assay: Primary qHTS for Identification of Small Molecule Activators of Huntingtin-Antisense Promoter Activity; also: nearly all actives have a fitted effect of over 55% in size
Details: HEK293 HTT-AS promoter firefly luciferase reporter, 24 h; series mostly up to 57.5 µM; activity change, positive = activation: at the top concentration
Summary of the method: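 Firefly luciferase readout (Dual-Glo, 10 min RT) after 24 h, 37 °C compound exposure (final up to 57.5 uM) of HEK293 reporter cells cultured 24 h beforehand; PTC124 at 50 uM final as control inhibitor; activity scaled vehicle 0%, zero RLU -100%.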

Activity change, positive = activation, inactive:
Cc1ccc(/C=C/C(=O)Nc2ccc3nc(N4CCC(C)CC4)cc(C)c3c2)cc1 -8.43%
Cc1cc(N2CCC(C(=O)Nc3ccc(F)cc3F)CC2)n2nc(C)c(-c3ccc(Cl)cc3)c2n1 -4.9%
CCOc1ccc(C(=O)Nc2ccc3nc(N(CC)CC)cc(C)c3c2)cc1 -38.8%
Cn1c(=O)oc2cc(S(=O)(=O)NC(Cc3ccccc3)C(=O)Nc3ccc(F)c(Cl)c3)ccc21 (centres undefined) 8.18%
COc1cc(-c2cc(OC)c3c(C)oc(C)c3c(=O)c2)ccc1OC(=O)c1cccc(C)c1 -15.9%
Cc1nn(S(=O)(=O)c2ccc(F)cc2)c(C)c1S(=O)(=O)N1CCCCCC1 -11.6%
Cc1ccc(CNC(=O)c2ccc3c(c2)c(C)c(C)n3Cc2ccc(Cl)cc2)o1 -25.5%
CC(NN)c1ccccc1 (centres undefined) -6.13% [at 25.1 µM, percent change from vehicle, -100% = no light]
Cc1ccc(-c2noc(-c3ccc(N4CCCC4)c([N+](=O)[O-])c3)n2)cc1 -59.2%
CCCc1cc(=O)[nH]c(SCc2nc(-c3ccc(OCC)cc3)no2)n1 -12.8%
Cc1c(-c2ccccc2)c(=O)oc2c(CN3CCOCC3)c(O)ccc12 -1.82%
Cc1ccc(C2C=C(c3ccccc3)Nc3nc(NS(C)(=O)=O)nn32)cc1 (centres undefined) -6.37%
CCc1cccc(C)c1NC(=O)CSc1nc2ccncc2[nH]1 -25.9%
COc1ccc(NC(=O)C2CCN(c3cc(C)nc4c(-c5ccc(Cl)cc5)c(C)nn34)CC2)cc1 -11.3%
CCOc1ccc(C2C(C(=O)Nc3ccc(OC)cc3)=C(C)Nc3nc(CCCO)nn32)cc1 (centres undefined) -9.98%
COc1ccc(CCNS(=O)(=O)c2c(C)nc3sc(C)cn3c2=O)cc1OC -6.84%
Cc1cc(Nc2cccc(C(=O)O)c2)n2nc(C)nc2n1 -8.1%
CCCn1c2ccccc2c2cnn(CC(=O)NCCN(CC)CC)c(=O)c21 -10.7%
COc1ccc(CCNC(=O)c2ccc3c(c2)N=C(C)c2ccccc2S3)cc1OC -33.5%
COc1ccc(-c2nc3ccccc3o2)cc1NC(=O)c1cccnc1 8.55%
Cc1cccc(NC(=O)CN(C)S(=O)(=O)c2ccc3c(c2)c(=O)n(C)c(=O)n3C)c1C -0.33%
CCOc1c(Cl)cc(CNc2ccc3[nH]c(=O)[nH]c3c2)cc1OC -41.1%
CCN(CC)CCCNC(=O)c1ccc2c(c1)sc1nc(-c3ccc(C)cc3)cn12 -15.9%
COc1ccc(NC(=O)NC(C)c2c(-n3cccc3)sc(C)c2C)cc1OC (centres undefined) -31.2%
CCCCOc1ccc(C(=O)Nc2cc(-c3cn4cccnc4n3)ccc2OC)cc1 -11.9%
CCN(c1cccc(C)c1)S(=O)(=O)c1cc2c(cc1C)n(C)c(=O)c(=O)n2C -11.1%
CCOc1cccc2sc(NC(=O)c3ccc(S(=O)(=O)N4CCCCC4C)cc3)nc12 (centres undefined) -33.7%
O=C(c1cc(-c2ccc(Cl)cc2)n[nH]1)N1CCN(S(=O)(=O)c2ccc(Br)s2)CC1 -35.6%
CCOC(=O)c1c(C)[nH]c(C)c1S(=O)(=O)N1CCN(c2cc(Cl)ccc2C)CC1 -40.8%
Clc1ccccc1Cn1c(-c2cccs2)nc2ccccc21 -36.3%
CCOc1ccc(NC(=O)c2sc(-n3nc(C)c(Cc4ccc(Cl)cc4)c3C)nc2C)cc1 -8.82%
Cc1nnc(NC(=O)c2nc(SC(C)C)ncc2Cl)s1 20%
CCc1cccc(NC(=O)c2ccc3c(c2)N(Cc2cccc(Cl)c2)C(=O)c2ccccc2S3=O)c1 (centres undefined) -6.52%
CCOC(=O)c1c(-c2ccc(C)cc2)csc1NC(=O)c1cc(-c2ccc(OC)cc2)on1 -4.76%
Cc1cccc(N(C)C(=O)CCS(=O)(=O)c2ccc3c(c2)n(C)c(=O)c(=O)n3C)c1 -2.44%
COc1cc(NC(=O)Cn2c(=O)n(Cc3ccco3)c(=O)c3sc4ccccc4c32)cc(OC)c1 1.68%
CCN(CC)C(=O)c1sc2c(c1C)c(=O)n(-c1ccc(Cl)c(Cl)c1)c(=O)n2Cc1ccccc1C#N -25.5%
COCCCNc1oc(/C=C/c2cc(OC)c(OC)c(OC)c2)nc1C#N -2.85%
Cc1ccc(N2CCN(C(=O)c3c(C)oc4ncn(CC(C)C)c(=O)c34)CC2)c(C)c1 -5.61%
Cc1cccc(NC(=O)CSc2ncc3c(n2)-c2ccccc2N(Cc2ccc(F)cc2)S3(=O)=O)c1C -6.34%
Cc1ccc(C)c(N2CCN(C(=O)C3CCN(c4nc5ccc(C)cc5[nH]4)CC3)CC2)c1 -30.5%
Cc1cccc(CCNC(=O)c2ccc3c(c2)N(Cc2ccccc2F)C(=O)c2ccccc2S3)c1 -17.7%
Cc1cc(-c2ccc(C)c(S(=O)(=O)N3CCN(c4cccc(C(F)(F)F)c4)CC3)c2)on1 -21.7%
CN(C)c1ccc(-c2nc(-c3cc4cc(Cl)ccc4oc3=O)cs2)cc1 -1.88%
CCc1cccc(NC(=O)CCC(=O)N2CCSc3ccccc32)c1 -18.1%
Cc1ccc(Oc2c(C(F)(F)F)oc3c(CN4CCC(C)CC4)c(O)ccc3c2=O)cc1 -9.12%
COc1ccc(-n2c(=O)c3c(c4cc(OC)ccc4n3C)n(Cc3cccc(OC)c3)c2=O)cc1 -9.18%
O=C(CCC1N=C2c3ccccc3N=C(SCc3ccc(F)cc3)N2C1=O)NCc1ccc(F)cc1 (centres undefined) -20.4%
O=C(CCc1nc(CN2CCN(S(=O)(=O)c3ccc(Cl)cc3)CC2)no1)N1CCCCC1 -10.7%
CCc1cccc(C)c1NC(=O)Cn1ccn(-c2cccc(OC)c2)c(=O)c1=O -2.06%
Cc1cccc(Cn2c(SCc3ccc(C(=O)NCCc4ccccc4)cc3)nc3ccncc32)c1 -14.7%
Fc1cccc(-n2ncc3c2ncn2nc(COc4ccc(Cl)cc4)nc32)c1 -3.71%
CCCC1=Nc2cc(C(=O)NCc3ccc(OC)cc3)ccc2Sc2ccc(C)cc21 -26.3%
Cc1nc2scc(C)n2c(=O)c1S(=O)(=O)Nc1ccc(N2CCOCC2)c(Cl)c1 -43.8%
CCC(C(=O)Nc1cc(OC)cc(OC)c1)n1nc(-c2ccc(C)c(C)c2)ccc1=O (centres undefined) -28.5%
CCOc1ccc(C(=O)NCCn2cc(SCC(=O)Nc3ccc4c(c3)OCCO4)c3ccccc32)cc1 -38.3%
CCOc1ccc(-c2nc(CSCC(=O)N3CCN(c4ccc(F)cc4)CC3)c(C)o2)cc1 -6%
C1CCN2C[C@@H]3C[C@@H](CN4CCCC[C@@H]34)[C@H]2C1 -1.02%
CN1CCc2c(sc3c2C(=O)NC(c2ccc(OC(=O)c4ccc(C(C)(C)C)cc4)cc2)N3)C1 (centres undefined) -73.4%
O=C(NCCc1c[nH]c2ccccc12)c1cccnc1 19.9%
O=C(CSc1nnc(-c2ccccc2)o1)c1cccc([N+](=O)[O-])c1 -10.3%
CCN(CC)CCCNC(=O)c1ccc(-c2nc(CN3CCc4ccccc43)c(C)o2)cc1 -16.6%
COC(=O)c1cc(S(=O)(=O)N2CCN(c3cccc(C)c3)C(C)C2)cn1C (centres undefined) 0.515%
O=C(Cn1ncc2c3ccccc3n(Cc3ccc(Cl)cc3)c2c1=O)NCc1ccccn1 -4.49%
CCN(CC)CCCNC(=O)c1ccc2c(=O)n(CCc3ccccc3)c(=O)[nH]c2c1 0.672%
CCc1ccc(-n2cnc3cc(C(=O)NCc4ccc(C)cc4)ccc32)cc1 -43%
CCOc1ccc(C(=O)Nc2ccc3nc(SCCOc4ccccc4)sc3c2)cc1 -9.66%
CCOC(=O)c1c(C)[nH]c(CCC(=O)NCc2ccc(CC)cc2)c1C -24%
CC(=O)c1cccc(NC(=O)Cn2nc(C)n3cccc3c2=O)c1 -17.7%
CC(=O)N1CCCc2cc(S(=O)(=O)N3CCC(C(=O)Nc4cccc(Cl)c4C)CC3)ccc21 -18.3%
CCN(CC)C(=O)c1c(-c2ccccc2)c(-c2ccccc2)nn(C)c1=O -10.6%
CCc1ccc(C(=O)c2cn(CC(=O)Nc3cc(C)ccc3C)c3nc(C)ccc3c2=O)cc1 -12%
O=C(CSc1nnc(-c2cccs2)o1)Oc1ccccc1 -3.86%
CCOC(CN1C(=O)[C@](CC(=O)Nc2ccc(C)cc2)(NC(=O)Nc2ccc(C)cc2)c2ccccc21)OCC -24.6%
COc1ccc(N2CCN(C(=O)CCn3nc(C)c(S(=O)(=O)N4CCCC4)c3C)CC2)cc1 -17.5%
Cc1ccc(C2c3[nH]c4ccccc4c3CCN2C(=O)c2cccc(C)c2)cc1 (centres undefined) -31.4%
CC(C)Nc1ccc(-c2nc(-c3ccco3)no2)cc1[N+](=O)[O-] 28.7%
CCOCCCNC(=O)C(c1ccc(C)cc1)N(Cc1ccc2c(c1)OCO2)C(=O)c1ccc(NC(C)=O)cc1 (centres undefined) 1.29%
Cc1ccc2nc(N3CCC(C(=O)N4CCN(c5cccc(Cl)c5)CC4)CC3)[nH]c2c1 -28.6%
CCC(C)NC(=O)c1ccccc1NC(=O)CN1C(=O)c2cccc3cccc1c23 (centres undefined) -15.9%
COc1cc(C(=O)NCC(c2cccs2)S(=O)(=O)c2ccc(F)cc2)cc(OC)c1OC (centres undefined) -27.2%
CCOC(=O)c1c(C)[nH]c(CCC(=O)Nc2ccc(C)c(F)c2)c1C -20.6%
CC(C)NC(=O)CN1C(=O)COc2ccc(S(=O)(=O)N3CCCCCC3)cc21 -14.4%
Cc1cccc(OCC(=O)Nc2ccc(Cl)c(-c3nc4ncccc4o3)c2)c1C -21.5%
CC1CC(OC(=O)C(O)c2ccccc2)CC(C)(C)N1C (centres undefined) 1.05%
Cc1cccc(NC(=O)c2nnn(CC(=O)Nc3ccc(C(C)C)cc3)c2N)c1C -2.66%
CCC(Sc1nc2cc(OC)c(OC)cc2c2nc(-c3ccccc3)nn12)C(=O)Nc1cccc(C)c1 (centres undefined) -0.73%
COc1ccc(NC(=O)C2=C(C)Nc3nc(SCc4ccccc4C)nn3C2c2cc(OC)c(O)c(OC)c2)cc1 (centres undefined) -8%
Cc1ccc(-n2ncc(C(=O)NCc3cccs3)c2C2CCN(C(=O)OC(C)(C)C)CC2)c(C)c1 -18.3%
Cc1ccc(CSc2nnc(CCNC(=O)OC(C)(C)C)o2)cc1 -16.7%
COc1ccc(OC)c(NC(=O)CSc2nnc3ccc4ccccc4n23)c1 -0.385%
O=C(NCc1ccccc1Cl)c1ccc(CSCc2ccccc2Cl)o1 -4.91%
CCc1ccc(NC(=O)CCn2nc(-c3ccccc3OC)c3c(C)cc(C)nc32)cc1 -20.6%
COc1ccc(-c2noc(CC(=O)Nc3ccc(F)cc3F)n2)cc1 -25%

— PubChem BioAssay AID1508624 (National Center for Advancing Translational Sciences (NCATS), 2021)
